Hit rate of the full screen: of about 350,000 compounds, about 31,000 (8.9%) were called active. The inconclusive results got no clear call from the source; some entries with a clear call stand among them for comparison. Calls follow the shape of the dose curve; as a rule, active = well fitted inhibition curve with a large enough effect; inconclusive = small, poorly fitted or top-dose-only effect; inactive = no such curve, though single readings can be large or run the other way. Where the call is inconclusive, the potency comes from a doubtful curve fit.
The compounds below were run against Histone-lysine N-methyltransferase EHMT2 (Homo sapiens) (UniProt Q96KQ7) (assay: qHTS Assay for Inhibitors of Histone Lysine Methyltransferase G9a). Details: G9a H3K9 monomethylation, AlphaScreen, 2 h; activity, negative = inhibition: at 59 µM (top of the series) unless noted.
Chain of UniProt Q96KQ7 (Q96KQ7 whole entry, looked up): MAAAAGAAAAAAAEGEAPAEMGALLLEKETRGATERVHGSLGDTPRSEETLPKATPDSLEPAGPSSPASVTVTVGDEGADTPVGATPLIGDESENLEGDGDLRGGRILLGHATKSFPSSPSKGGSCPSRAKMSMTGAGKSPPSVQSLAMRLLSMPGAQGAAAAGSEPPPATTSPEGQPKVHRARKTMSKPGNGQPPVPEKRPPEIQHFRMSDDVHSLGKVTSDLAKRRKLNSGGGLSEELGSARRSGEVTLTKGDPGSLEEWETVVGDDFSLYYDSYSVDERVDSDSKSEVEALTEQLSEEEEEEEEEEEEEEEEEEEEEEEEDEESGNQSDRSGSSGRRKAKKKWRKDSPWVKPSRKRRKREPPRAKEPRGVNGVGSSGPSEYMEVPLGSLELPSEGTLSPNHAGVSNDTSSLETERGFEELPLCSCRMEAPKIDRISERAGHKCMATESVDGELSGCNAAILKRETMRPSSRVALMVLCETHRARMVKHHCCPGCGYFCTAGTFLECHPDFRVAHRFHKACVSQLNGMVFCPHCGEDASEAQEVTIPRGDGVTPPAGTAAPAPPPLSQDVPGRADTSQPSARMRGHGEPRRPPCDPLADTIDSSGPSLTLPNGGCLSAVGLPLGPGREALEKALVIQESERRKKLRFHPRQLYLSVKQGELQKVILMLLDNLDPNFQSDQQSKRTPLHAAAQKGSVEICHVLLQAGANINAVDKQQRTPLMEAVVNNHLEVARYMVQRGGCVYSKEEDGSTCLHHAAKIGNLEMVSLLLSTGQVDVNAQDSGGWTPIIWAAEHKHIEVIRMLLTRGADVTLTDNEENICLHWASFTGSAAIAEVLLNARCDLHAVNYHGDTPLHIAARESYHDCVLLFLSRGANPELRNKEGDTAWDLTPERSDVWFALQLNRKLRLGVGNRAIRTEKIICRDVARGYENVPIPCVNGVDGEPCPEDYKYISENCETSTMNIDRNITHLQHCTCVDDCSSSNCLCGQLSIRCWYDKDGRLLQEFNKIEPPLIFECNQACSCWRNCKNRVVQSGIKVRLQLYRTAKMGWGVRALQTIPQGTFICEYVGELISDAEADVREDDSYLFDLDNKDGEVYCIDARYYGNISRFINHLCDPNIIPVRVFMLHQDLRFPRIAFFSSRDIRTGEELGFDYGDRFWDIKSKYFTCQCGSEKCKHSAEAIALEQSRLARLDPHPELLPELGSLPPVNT
Outline: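 Methyltransferase reactions run at room temperature for 2 h (20 nM enzyme, 500 nM biotin-H3K9 peptide, 20 uM SAM) after a 15 min compound preincubation; product detected by AlphaScreen beads and anti-H3K9me1 antibody.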
% is scaled to controls: 0 for no effect and ±100 for the full control effect; potency is read from the fitted curve at half-maximal effect; tags tell the direction and shape of the fitted curve.
Also: nearly all actives have a fitted effect of over 75% in size.

| Compound | Potency | activity, negative = inhibition |
| --- | --- | --- |
| O=C(Cn1c(=O)c2cccn2c2ccc(F)cc21)NCCCN1CCN(c2ccccc2F)CC1 | active: 44.7 µM |  |
| COc1ccc2c(C)cc(=S)[nH]c2c1 | active: 39.8 µM |  |
| CC1Cc2ccccc2N1S(=O)(=O)c1cccc(C(=O)N2CC(=O)Nc3ccccc32)c1 (stereo not given) | active: 70.8 µM |  |
| COc1ccc(Cl)cc1S(=O)(=O)n1nnc2ccccc21 | active: 50.1 µM |  |
| CCc1ccc(Nc2n[n+](-c3ccccc3)c(-c3ccc(SC)cc3)s2)cc1 | active: 44.7 µM |  |
| Cc1ccc(C(C(=O)NCC2CCCO2)N(C(=O)c2snc(C(N)=O)c2N)c2ccc(C(C)C)cc2)o1 (stereo not given) | inconclusive: 70.8 µM [inhibitor, single point] |  |
| COc1cc2c(cc1OC)Cc1cc(OC)c(OC)cc1Cc1cc(OC)c(OC)cc1C2 |  | inactive: -15.3% [at 2.33 µM] |
| Cc1[nH]c2ccccc2c1C(=O)C(=O)NCc1ccco1 | inconclusive: 11.2 µM [inhibitor, partial curve, poor fit] |  |
| CC(C)CCNC(=O)C1CCN(c2nc3ccc(Cl)cc3[nH]2)CC1 | inconclusive: 6.31 µM [inhibitor, single point] |  |
| Cc1cc2c(NCCc3ccccc3)ncnc2s1 | active: 50.1 µM |  |
| Cc1ccc(S(=O)(=O)NC(C(=O)Oc2cc3oc(=O)cc(C)c3cc2Cl)C(C)C)cc1 (stereo not given) |  | inactive: 16.3% |
| COc1ccc(-c2nc(CC(=O)O)cs2)cc1OC | inconclusive: 3.16 µM [inhibitor, partial curve, poor fit] |  |
| CCNc1nc(OC)nc(SCC(=O)Nc2ccccc2)n1 |  | inactive: -20.7% [at 102 µM] |
| COc1cccc(-n2c(C)nn(CCOc3ccccc3)c2=O)c1 | inconclusive: 39.8 µM [inhibitor, partial curve, poor fit] |  |
| Cc1ccsc1/C=C/c1ccc2cccc(O)c2n1 | inconclusive: 39.8 µM [inhibitor, single point] |  |
| Cc1ccc(N(CC(=O)Nc2ccc(S(=O)(=O)N3CCOCC3)cc2)S(C)(=O)=O)cc1C | inconclusive: 89.1 µM [inhibitor, single point] |  |
| Cc1cc(=O)[nH]c(N/N=C/c2c(C)nn(-c3ccccc3)c2C)n1 | active: 25.1 µM |  |
| CC1=C(C(N)=O)C(c2ccc(C)o2)C(C(N)=O)=C(C)N1 |  | inconclusive: -60.9% [inhibitor] |
| C/C(=N\Nc1nncc2ccccc12)c1ccc(Cl)c([N+](=O)[O-])c1 | inconclusive: 79.4 µM [inhibitor, partial curve, poor fit] |  |
| O=C(O)CCCNS(=O)(=O)c1ccc(NCc2ccccc2)c(C(=O)O)c1 | active: 22.4 µM |  |
| O=C(NCCS(=O)(=O)c1ccc(Br)cc1)c1ccccc1Cl |  | inactive: 37.8% [at 102 µM] |
| O=[N+]([O-])c1nn(-c2ccc(Cl)cc2)n(O)c1=NCc1ccccc1Cl | inconclusive: 31.6 µM [inhibitor, partial curve] |  |
| CCN(CC)CCN1C(=O)c2ccccc2NC1c1cc(OC)c(OC)c(OC)c1 (stereo not given) | inconclusive: 1 µM [inhibitor, single point] |  |
| COc1cc2nc(CSc3ncn[nH]3)[nH]c(=O)c2cc1OC | inconclusive: 44.7 µM [inhibitor, partial curve] |  |

| Compound | Potency | activity, negative = inhibition |
| --- | --- | --- |
| O=C1OC(c2ccco2)=N/C1=C\c1ccc(-c2cccc(C(F)(F)F)c2)o1 | inconclusive: 25.1 µM [inhibitor, single point] |  |
| NS(=O)(=O)c1ccc(S(=O)(=O)N2CCCC2)cc1 | inconclusive: 79.4 µM [inhibitor, single point] |  |
| O=[N+]([O-])c1ccc(Cl)cc1CNc1ccc(F)c(F)c1 | inconclusive: 39.8 µM [inhibitor, single point] |  |
| Nc1cc(=O)[nH]c(SCC(=O)Nc2ccc3c(c2)CCC3)n1 | inconclusive: 79.4 µM [inhibitor, partial curve, poor fit] |  |
| Cc1ccc(/C=N/NC(=O)CN2CCN(S(=O)(=O)c3ccc(Br)cc3)CC2)s1 | inconclusive: 39.8 µM [inhibitor, single point] |  |
| COC(=O)COc1cc(C)cc2oc(=O)c(CC(=O)OC)c(C)c12 |  | inactive: 9.26% |
| COc1ccc(OC)c(-c2csc(N(CC3CCCO3)C(=O)C3CCCCC3)n2)c1 (stereo not given) |  | inactive: 8.03% [at 102 µM] |
| CCn1cc(C(=O)NCc2ccc3c(c2)OCO3)c(=O)c2cc(F)c(N3CCN(C(=O)c4ccco4)CC3)cc21 | inconclusive: 25.1 µM [inhibitor, partial curve, poor fit] |  |
| COc1cc2cc(C(c3nnnn3Cc3ccc(F)cc3)N3CCCCCC3)c(=O)[nH]c2cc1OC (stereo not given) | inconclusive: 1.41 µM [inhibitor, single point] |  |
| C#CCOc1c(Br)cc(/C=C2/C(=O)ON=C2C)cc1OCC | active: 44.7 µM |  |
| COC(=O)C1=C(C)N(CCc2ccccc2)C(=O)C1 | inconclusive: 7.08 µM [inhibitor, single point] |  |
| CC1=C(C(=O)OCC2CCCO2)C(c2ccc(C)o2)C2=C(CC(c3ccc(N(C)C)cc3)CC2=O)N1 (stereo not given) | active: 11.2 µM |  |
| COc1ccc(CCNC(=O)C23CN(Cc4ccccc4)CC2C(c2ccc([N+](=O)[O-])cc2)=NO3)cc1 (stereo not given) |  | inconclusive: -93.9% [inhibitor] |
| COc1ccc(NC(=O)c2ccc3c(SCC(=O)O)c4c(nc3c2)CCC4)c(OC)c1 | inconclusive: 28.2 µM [inhibitor, single point] |  |
| O=C(NC(=S)Nc1ccccc1N1CCCCC1)c1ccccc1 | active: 31.6 µM |  |
| CCc1ccc(N=C2NC(=O)/C(=C/c3cc(OC)c(O)c(OC)c3)S2)cc1 | inconclusive: 39.8 µM [inhibitor, single point] |  |
| O=C(NC1CCN(Cc2ccc(F)cc2)CC1)c1ccccc1 |  | inactive: -4.59% [at 102 µM] |
| CN=C(c1ccc(C)cc1)n1c(=S)nc(-c2ccc(C)cc2)n(C)c1=S | active: 39.8 µM |  |
| COc1ccc(N/N=C(/C#N)S(=O)(=O)c2nsc(C)c2C#N)cc1 | inconclusive: 11.2 µM [inhibitor, partial curve, poor fit] |  |
| CCCN(CCC)CCNC(=O)c1ccc2c(c1)NC(=O)C(CS(=O)(=O)Cc1cccc(Br)c1)N2 (stereo not given) | active: 25.1 µM |  |
| COc1ccc(C2CC3(O)CC(C#N)(C(=O)N3)C2(C#N)C#N)cc1 (stereo not given) |  | inactive: -8.31% [at 102 µM] |
| Cc1ccc(Nc2nc(-c3ccccc3)cs2)nc1 |  | inactive: 1.55% |
| COc1ccc(/C=C2\N=C(C)OC2=O)cc1OC(C)=O | active: 28.2 µM |  |
| N/C(=N\OC(=O)c1ccc([N+](=O)[O-])cc1)c1ccccn1 | inconclusive: 50.1 µM [inhibitor, partial curve, poor fit] |  |

| Compound | Potency | activity, negative = inhibition |
| --- | --- | --- |
| CN(C)CCNC(=O)c1cc2sc3ccccc3c2s1 | inconclusive: 39.8 µM [inhibitor, partial curve, poor fit] |  |
| COC(=O)Cn1c(C)c(/C=C/c2cc[n+](C)cc2)c2ccccc21 | active: 39.8 µM |  |
| CCOc1ccc(N2C(=O)C(=O)/C(=C(/O)c3ccccc3)C2c2ccccc2[N+](=O)[O-])cc1 (stereo not given) | active: 44.7 µM |  |
| CCOC(=O)C(/C=C(\C#N)C(=O)OCC)=C(/N)N1CCN(c2ccccc2)CC1 | inconclusive: 39.8 µM [inhibitor, partial curve, poor fit] |  |
| CC1CCCCN1C(=O)c1cc(Cl)ccc1[N+](=O)[O-] (stereo not given) |  | inactive: -2.76% [at 102 µM] |
| Cc1ccc(-c2cc(-c3n[nH]c(=S)o3)c3ccccc3n2)cc1 | inconclusive: 15.8 µM [inhibitor, partial curve, poor fit] |  |
| COc1ccc(NC(=S)N(CCN2CCOCC2)Cc2cc3cc4c(cc3[nH]c2=O)OCO4)cc1 | inconclusive: 44.7 µM [inhibitor, partial curve, poor fit] |  |
| CC1CN(C(=O)CSc2nnc3c(Cl)cc(Cl)cn23)CC(C)O1 (stereo not given) | active: 79.4 µM |  |
| Cc1c(C)n(C)c2ccc(C(=O)NCCCN3CCOCC3)cc12 |  | inactive: -13.4% [at 102 µM] |
| Cc1[nH]c2ccccc2c1CCN(Cc1cccs1)C(=S)NC(C)(C)C | inconclusive: 89.1 µM [inhibitor, single point] |  |
| C[N+]1(C)C2CCC1CC(OC(=O)C(O)c1ccccc1)C2 (stereo not given) |  | inactive: -8.67% [at 2.33 µM] |
| COc1ccc(CN2CC(=O)N(c3ccc(C)cc3C)C2=S)cc1OC | inconclusive: 79.4 µM [inhibitor, single point] |  |
| CCCCN1CC(C(=O)NC2CCCCC2)CC1=O (stereo not given) | inconclusive: 1.78 µM [inhibitor, full curve, poor fit] |  |
| COc1cccc(CN2CCNC(=O)C2CC(=O)NCc2cn3ccccc3n2)c1OC (stereo not given) | inconclusive: 79.4 µM [inhibitor, single point] |  |
| NC(=O)c1nsc(C(=O)N(CC(=O)NCc2ccccc2)c2cccc(F)c2)c1N |  | inactive: 22.1% [at 102 µM] |
| O=C(O)Cc1ccc(C(=O)c2cccs2)s1 | inconclusive: 39.8 µM [inhibitor, single point] |  |
| O=C(CSc1ccccc1)NCc1cccnc1 | inconclusive: 89.1 µM [inhibitor, single point] |  |
| COc1cccc(OCC(=O)O)c1 |  | inactive: 7.04% [at 102 µM] |
| COc1ccccc1NC(=O)Cn1c(=O)c(CNc2ccc(C)cc2)cc2cc3c(cc21)OCCO3 | inconclusive: 7.08 µM [inhibitor, partial curve] |  |
| Cc1cccc(N2C(=O)CSC23C(=O)N(CC(=O)NCc2ccccc2Cl)c2ccccc23)c1 (stereo not given) |  | inactive: -7.87% |
| O=C(CSc1oc(-c2ccc(F)cc2)nc1S(=O)(=O)c1ccc(F)cc1)NCC1CCCO1 (stereo not given) | inconclusive: 35.5 µM [inhibitor, single point] |  |
| CCOc1cc(C(c2c(C)[nH][nH]c2=O)c2c(C)[nH][nH]c2=O)ccc1O | inconclusive: 89.1 µM [inhibitor, single point] |  |

Source: PubChem BioAssay AID504332 (National Center for Advancing Translational Sciences (NCATS), 2011)
